From PubChem BioAssay AID686970 (National Center for Advancing Translational Sciences (NCATS), 2013)
The whole screen tested about 360,000 compounds, of which about 6,000 (1.7%) were called active. The inconclusive results got no clear call from the source; some entries with a clear call stand among them for comparison. The call rests on the fitted dose curve; in most records, active means well fitted cell-killing curve with a large enough effect; inconclusive means small, poorly fitted or top-dose-only effect, or effect the other way; inactive means flat fitted curve, though single readings scatter. Potencies of inconclusive entries are left out as doubtful fits.

test: qHTS for induction of synthetic lethality in tumor cells producing 2HG: qHTS for the HT-1080-NT fibrosarcoma cell line; conditions: HT-1080-NT fibrosarcoma viability, CellTiter-Glo ATP luminescence, 48 h; activity, negative = less viability: at 46.1 µM (top of the series) unless noted;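 further: NT is the 2HG producing partner of a matched IDH1 knockdown line; nearly all actives have a fitted effect of over 55% in size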;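 on activity, negative = less viability: 0% = DMSO-treated cells and -100% = media-only wells without cells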
How it was run: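 Fibrosarcoma NT cells, 750 per well in 5% FBS RPMI, were exposed to compound for 48 hours. Viability: CellTiter-Glo luminescence.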
Potency means the concentration at half of the fitted maximal effect; tags describe the fitted curve by direction and shape.

| SMILES | Potency | activity, negative = less viability |
| --- | --- | --- |
| O=C(NC1CCCCCC1)c1cccc(COCC(F)(F)F)c1 | inactive |  |
| Cc1cnc(NC(=O)CCCc2nc3ccccc3s2)s1 | inconclusive [cytotoxic, single point] |  |
| Cc1c(NC(=O)c2cc(Br)ccc2Cl)cccc1-n1cnnn1 |  | inactive: -9.07% [at 9.24 µM] |
| COc1cccc(-c2cnc3c(NC(C)=O)cc(-c4ccc(C(=O)N5CCOCC5)cc4)cn23)c1 | inconclusive [cytotoxic, single point] |  |
| CC(=O)Nc1ccc(-c2ccnc3c2CC(C)(C(=O)NCCc2ccccc2)O3)cc1 (stereo unspecified) | inactive |  |
| CSc1c(CC(=O)Nc2ccccc2Cl)n(Cc2ccccc2)c2ccccc12 | inconclusive [cytotoxic, single point] |  |
| Cc1cc(NC(=O)CCS(=O)(=O)c2nc(-c3ccccc3)cc(C(F)(F)F)n2)no1 | inconclusive [cytotoxic, single point] |  |
| Cc1ccc(N=C2N=C(N)c3ccccc32)cc1C | inconclusive [cytotoxic, single point] |  |
| CCC(C)c1ccc(N(C(=O)c2ccco2)C(C(=O)NC2CCCC2)c2cccnc2)cc1 (stereo unspecified) | inactive |  |
| CCOc1ccc(N(CC(=O)Nc2ccccc2OC)S(=O)(=O)c2ccccc2)cc1 | active: 2.06 µM |  |
| Cc1cc2c(cc1C)C(c1ccccc1OC(C)C)CC(=O)N2 (stereo unspecified) | active: 4.11 µM |  |
| Cc1oc(-c2ccc(-c3ccccc3)cc2)nc1CN(C)C1CCOC1 (stereo unspecified) | inconclusive [cytotoxic, single point] |  |
| O=C1C=CC(=O)C(CNc2ccc(C(=O)OCc3ccccc3)cc2)=C1 | active: 16.4 µM |  |
| Cc1cc(Cl)c(S(=O)(=O)N2CCN(c3ccccn3)CC2)cc1OCC(=O)NC1CCCCC1 | inconclusive [cytotoxic, single point] |  |
| Cc1cc(NC(=O)CSc2nnc3c(C)cc4c(C)ccc(C)c4n23)no1 | active: 6.31 µM |  |
| O=C1c2cccc(Cl)c2C(=O)c2c1cccc2N1CCCC1 |  | inconclusive: -32.5% [cytotoxic] |
| CN(C)CCCNC(=O)/C=C/c1ccc(OCc2c(F)cccc2Cl)cc1 | inconclusive [cytotoxic, single point] |  |
| Oc1ccc(Cl)cc1C1=NNC(c2cccs2)C1 (stereo unspecified) | inconclusive [cytotoxic, partial curve] |  |
| COc1ccc(NC(=S)N/N=C/c2cccn2Cc2ccccc2F)cc1 | inconclusive [cytotoxic, partial curve] |  |
| Cc1ccccc1-c1cnc(C(O)c2cc(Cl)cc(Cl)c2)[nH]1 (stereo unspecified) | inconclusive [cytotoxic, single point] |  |
| C[C@@H]1CN([C@@H](C)CO)C(=O)c2cc(NC(=O)CCC(F)(F)F)ccc2O[C@H]1CN(C)S(=O)(=O)c1ccc(Cl)cc1 | inactive |  |
| N#C/C(=C/c1ccc(N2CCCCC2)o1)c1cccc(F)c1 | inconclusive [cytotoxic, single point] |  |
| C=CCN(c1ccccc1)S(=O)(=O)c1cccc(C(=O)Nc2ccncc2)c1 |  | inconclusive: -31.5% [cytotoxic] |

| SMILES | Potency | activity, negative = less viability |
| --- | --- | --- |
| CC(=O)c1sc(N/N=C\c2c(O)ccc3ccccc23)nc1C |  | inconclusive: -1.3% [cytotoxic] |
| CCOc1ccc(/C=N/NC(=O)COc2ccccc2-c2ccccc2)cc1 | inconclusive [cytotoxic, single point] |  |
| CN(C)S(=O)(=O)c1ccc(C(=O)NCCS(=O)(=O)N2CCN(c3ccc(F)cc3)CC2)cc1 | inconclusive [cytotoxic, single point] |  |
| Cc1ccc(S(=O)(=O)NCC(=O)N2CCN(c3ccc(F)cc3)CC2)cc1 | inactive |  |
| CNC1=C(N(C(C)=O)c2ccc(Br)cc2)C(=O)c2ccccc2C1=O | active: 1.84 µM |  |
| Cc1ccc2cc(CN(C(=O)c3cccs3)c3ccccc3)c(=O)[nH]c2c1 | inactive |  |
| Cc1cccc(N2CN(Cc3ccco3)CNC2=S)c1 | inactive |  |
| COc1cccc(-c2ncn(CCc3ccccc3OC)c2C(C)C)c1 | active: 13 µM |  |
| COc1cc(OC)nc(C(NC(=O)C2CCN(Cc3ccc(Oc4ccccc4)cc3)CC2)c2ccccc2C)n1 (stereo unspecified) | active: 16.4 µM |  |
| CC(C)Cc1ccc(-c2cc3nc(NCCc4ccc(S(N)(=O)=O)cc4)ccn3n2)cc1 | inconclusive [cytotoxic, single point] |  |
| Clc1cccc(Cl)c1CNc1ccc(N2CCCC2)cc1 | inconclusive [cytotoxic, partial curve] |  |
| C=CCc1cccc(CNc2nc3ccccc3n2CC)c1O | inconclusive [cytotoxic, single point] |  |
| NNC(=O)c1cc(C2CC2)nc2ccc(Br)cc12 | inconclusive [cytotoxic, single point] |  |
| O=C(c1ccc(C(F)(F)F)cc1)N1CCC(=O)N([C@H](COCc2ccc(C(F)(F)F)cc2)Cc2ccccc2)CC1 | inconclusive [cytotoxic, single point] |  |
| CCN(CC(=O)Nc1ccc(NC(C)=O)cc1)C(=O)CCCc1c[nH]c2ccccc12 | inactive |  |
| COc1cccc(NC(=S)NCCN2CCOCC2)c1 | inactive |  |
| Cc1cccc2c(=O)c(C(=O)NCCc3ccccc3)c[nH]c12 | inconclusive [cytotoxic, single point] |  |
| Cc1cnn(CCC(=O)NNC(=S)NCC(C)C)c1 | inactive |  |
| CCCCCCN1CCN(C2CN(Cc3cn(Cc4cc(C)cc(C)c4)nn3)S(=O)(=O)C2)CC1 (stereo unspecified) | inconclusive [cytotoxic, single point] |  |
| CN(C)c1ccc(-c2csc(C(C)(O)c3ccc(F)c(F)c3)n2)cc1 (stereo unspecified) | inconclusive [cytotoxic, single point] |  |
| C(=N\n1cnnc1)/c1ccccc1OCCOc1ccccc1 | inconclusive [cytotoxic, single point] |  |
| S=C1NCCN1CC1CCN(CCC23CC4CC(CC(C4)C2)C3)CC1 | inactive |  |
| Oc1ccc(C[C@H]2CNC(=S)N2CC2CCCN2C[C@H](Cc2ccc(O)cc2)N2C[C@H](Cc3ccc(O)cc3)N(CC3CCCCC3)C2=S)cc1 (stereo partly specified) | active: 16.4 µM |  |
